# Laboratory results: paper PMC4336329 (PLoS ONE, 2015)
# About 2,200 (0.71%) of roughly 310,000 compounds showed an effect of 50% or more. Effects have a minus sign here. This is one part of the list.
# Target: human ether-à-go-go-related gene (hERG) potassium channel (human, UniProt Q12809)
# Assay: primary screen, population patch clamp on CHO cells stably expressing hERG
# Chain of human ether-à-go-go-related gene (hERG) potassium channel (Q12809 whole entry, looked up): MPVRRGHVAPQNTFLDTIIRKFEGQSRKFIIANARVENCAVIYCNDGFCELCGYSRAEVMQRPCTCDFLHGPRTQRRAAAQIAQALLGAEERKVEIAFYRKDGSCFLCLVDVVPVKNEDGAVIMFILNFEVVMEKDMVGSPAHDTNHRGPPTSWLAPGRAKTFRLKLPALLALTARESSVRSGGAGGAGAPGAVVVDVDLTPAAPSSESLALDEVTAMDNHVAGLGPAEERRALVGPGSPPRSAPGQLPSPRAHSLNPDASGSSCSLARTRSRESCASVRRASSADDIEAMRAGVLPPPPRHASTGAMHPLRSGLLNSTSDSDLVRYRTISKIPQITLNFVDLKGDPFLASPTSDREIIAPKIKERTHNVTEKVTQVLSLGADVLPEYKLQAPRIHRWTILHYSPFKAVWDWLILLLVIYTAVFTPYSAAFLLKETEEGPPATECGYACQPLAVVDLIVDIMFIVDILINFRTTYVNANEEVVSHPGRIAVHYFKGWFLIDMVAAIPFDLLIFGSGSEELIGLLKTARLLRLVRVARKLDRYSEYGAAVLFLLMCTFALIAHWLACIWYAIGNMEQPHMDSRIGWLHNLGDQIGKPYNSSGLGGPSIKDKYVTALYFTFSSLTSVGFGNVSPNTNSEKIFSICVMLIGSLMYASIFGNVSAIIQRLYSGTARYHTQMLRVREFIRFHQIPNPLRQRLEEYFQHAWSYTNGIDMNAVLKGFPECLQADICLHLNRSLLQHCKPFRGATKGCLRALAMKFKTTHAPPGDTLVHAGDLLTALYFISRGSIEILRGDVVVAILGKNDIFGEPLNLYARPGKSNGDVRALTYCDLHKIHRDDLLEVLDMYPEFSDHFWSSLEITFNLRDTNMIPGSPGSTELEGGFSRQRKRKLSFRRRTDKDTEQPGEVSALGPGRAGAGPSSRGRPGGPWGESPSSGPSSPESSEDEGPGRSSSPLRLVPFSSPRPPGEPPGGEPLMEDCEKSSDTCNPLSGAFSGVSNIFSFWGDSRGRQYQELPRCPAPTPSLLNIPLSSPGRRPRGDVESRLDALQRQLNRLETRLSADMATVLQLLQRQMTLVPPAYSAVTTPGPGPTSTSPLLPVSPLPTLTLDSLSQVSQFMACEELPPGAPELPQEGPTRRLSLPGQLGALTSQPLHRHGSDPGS
row,Compound,"hERG current change (%, negative = inhibition) at 1uM [%]"
1,CCOc1ccc(NC(=O)CSc2nncc(=O)n2N)cc1,13.7
2,COC(=O)c1ccc(C23CC4(C2)[C@H](CN(CC2CCCCC2)[C@@H]4c2ccccc2)C3c2ccc(C(F)(F)F)cc2)cc1 (some centres unmarked),6.45
3,COc1cc(NC(=O)COC(=O)CSc2ccccc2F)c(C)cc1[N+](=O)[O-],13.9
4,CSc1oc(-c2ccc(F)cc2)nc1S(=O)(=O)c1ccccc1,-1.68
5,Cc1nnc(NC(=O)CSc2nnc(CCNC(=O)c3ccccc3F)n2C)s1,11.9
6,Cc1nc2ccccn2c1C(=O)/C=C/c1ccc(F)cc1,4.1
7,Cn1ccnc1C(=O)c1cccc(Br)c1,1.86
8,CCOC(=O)c1sc(=NC(=O)c2c(F)cccc2F)n(C)c1C,9.05
9,Cc1cccc(-n2ccnc2SCC(=O)Nc2nnc(C)s2)c1,0.329
10,CCOc1ccc(N=C(NN)c2ccc3ccccc3n2)cc1,11.9
11,O=C(c1ccc(OC2CCN(C/C=C/c3ccccc3)CC2)cc1)N1CCCC1,-27.1
12,Cc1cccc(N2CC(C(=O)Nc3ccc(S(=O)(=O)N4CCOCC4)cc3)CC2=O)c1 (centres unmarked),18.8
13,COc1ccc(CC(=O)N2CCN=C2SCc2ccc([N+](=O)[O-])cc2)cc1,-8.88
14,C=CCNc1ncnc2sc(SC)nc12,10.2
15,CC1CCCCN1C(=O)Cn1c(=O)n(CCC(=O)NCc2ccco2)c(=O)c2sccc21 (centres unmarked),-1.72
16,Cc1ccc(Cn2c(=N)c(C(=O)NCCN3CCOCC3)cc3c(=O)n4ccccc4nc32)cc1,-8.25
17,O=C(Nc1ncccc1O)c1cc2ccccc2o1,24.1
18,O=C(NCc1ccccc1)C(c1ccncc1)N(C(=O)c1csnn1)c1ccccc1F (centres unmarked),9.57
19,CN(Cc1ccccc1)C(=O)c1ccc(NC(=O)Cc2cccc(NC(=O)C3CCCN(C(=O)C4CCC4)C3)c2)cc1 (centres unmarked),9.88
20,COc1ccccc1-c1coc2cc(O)cc(O)c2c1=O,5.23
21,CC(=O)Nc1ccc(NC(=O)[C@@H](NC(=O)c2ccccc2F)C(C)C)cc1,16.8
22,Cc1ccccc1CS(=O)(=O)Cc1ccc(C(=O)NCc2ccccn2)o1,21.2

row,Compound,"hERG current change (%, negative = inhibition) at 1uM [%]"
1,CCCCCNC(=O)C1c2ccccc2Oc2ccccc21,8.57
2,CC(=O)Cc1c(C(=O)O)c(C)nn1-c1ccccc1,16.5
3,O=C1CC(c2ccc3c(c2)OCO3)Sc2nc3ccccc3n21 (centres unmarked),17.1
4,O=C(Cc1ccc2c(c1)CCCC2)Nc1ccc2ccccc2c1,27
5,COc1ccccc1C(=O)NC(=S)Nc1ccc(NC(=O)c2ccco2)cc1,-7.22
6,CS(=O)(=O)N(CC(=O)NC1CCCCC1)Cc1ccc(F)cc1,10.7
7,CCCCn1c(SCC(=O)NCc2cccs2)nc2c1c(=O)n(C)c(=O)n2C,-3.97
8,COc1ccccc1N1CCN(C(=O)C(CC(C)C)NC(=O)C2CCCCC2)CC1 (centres unmarked),1.29
9,CN1C(=O)C(=Cc2c(OCc3cnc(Cl)s3)ccc3ccccc23)C(=O)N(C)C1=O,16.2
10,CN(C(=O)Cc1c[nH]c2ccccc12)C(C(=O)Nc1ccc2c(c1)OCO2)c1ccccc1 (centres unmarked),9.96
11,O=C(C(Sc1ccccc1)c1ccccc1)N1CCN(c2ccccc2F)CC1 (centres unmarked),6.48
12,O=C(CSc1nnnn1C1CCCC1)NCc1ccc2c(c1)OCO2,9.58
13,COCCN(C(=O)CSc1ncn[nH]1)c1c(N)n(Cc2ccccc2)c(=O)[nH]c1=O,19.8
14,CC(C)[C@H](CN(N=O)[C@@H](Cc1ccccc1)CN(C)N=O)N(CCc1ccccc1)N=O.[Na+],11.1
15,CS(=O)(=O)c1ccc(Cl)c(C(=O)O)c1,14.6
16,Cc1ccc(Oc2c(C)nc(-c3ccccc3)[nH]c2=O)cc1,5.4
17,Cc1cccc(NC2=NCCCS2)c1,4.47
18,Cc1cc(OCC(=O)Nc2cnn(CCCC(=O)O)c2)ccc1Cl,20
19,CC(C)(C)c1nnc(NC(=O)NS(=O)(=O)c2ccccc2)s1,18.7
20,CCOC(=O)[C@@H]1[C@H]2COc3ccccc3[C@H]2N2C(=O)N(c3ccc(Cl)cc3)C(=O)[C@@]12C,9.47
21,COc1ccc([N+](=O)[O-])c(OC)c1C(=O)Nc1ccc(F)cc1F,11.7
22,O=C(NCCN1CCOCC1)c1cc(-c2ccco2)on1,-3.86

row,Compound,"hERG current change (%, negative = inhibition) at 1uM [%]"
1,CSCCC(NS(=O)(=O)c1cccs1)C(=O)NCc1ccccc1 (centres unmarked),15.7
2,Cc1nn(Cc2cccc(C(=O)N3CCCC(C)C3)c2)c(C)c1[N+](=O)[O-] (centres unmarked),-0.335
3,CCOCCCNCc1cccc(OCc2ccc(F)cc2)c1,-5.15
4,CC(=O)COc1coc(CN2CCN(c3ccc(F)cc3)CC2)cc1=O,19.2
5,Cc1ccc(C)c(NC(=O)Nc2ccc3c(c2)OCO3)c1,10.3
6,NC(N)=N/N=C/c1ccc(N(c2ccccc2)c2ccccc2)cc1.O=[N+]([O-])O,12.7
7,Cc1[nH]c2ccccc2c1/C=N/NC(=O)c1cc(C(C)(C)C)[nH]n1,8.06
8,Cc1ccc(-c2csc(N)n2)s1,7.86
9,CCOC(=O)[C@H]1[C@H]2COc3ccc(Br)cc3[C@H]2N2C(=O)CNC(=O)[C@@]12C,9.77
10,Cn1c(Cl)cnc1C(O)c1ccccc1 (centres unmarked),2.79
11,COc1ccc2oc(=O)c(-c3csc(Nc4cccc(O)c4)n3)cc2c1,20.5
12,O=C(CSc1nc2ccccc2[nH]1)N/N=C/C=C/c1ccccc1[N+](=O)[O-],3.64
13,O=C(CCc1nc2ccccc2c(=O)[nH]1)N1CCN(S(=O)(=O)c2ccc(F)cc2)CC1,-3.14
14,Cc1c(S(=O)(=O)NCCc2ccccc2)c(=O)n(C)c(=O)n1C,11.8
15,Nc1ccc2nc(-c3cccc(-c4nc5ccc(N)cc5[nH]4)c3)[nH]c2c1,2.17
16,CCOC(=O)Cc1csc(NC(=S)NC(=O)c2ccc(C)cc2)n1,15.8
17,CCOCCCNC(=O)CCC(=O)NNc1nc2ccccc2c2nc(C)nn12,9.53
18,N#C/C(=C(/O)COC(=O)COc1ccc(Cl)cc1)c1nc2ccccc2[nH]1,13.3
19,Cn1nnnc1SCc1c(F)cccc1F,8.28
20,CC(=O)O.c1ccc2c(c1)NC1(CCCCCC1)n1c-2nc2ccccc21,9.45
21,Cn1c(CC(=O)Nc2cccc(Cl)c2Cl)nnc1SCC(=O)NC1=NCCS1,10.6
22,O=C(CSc1ccc(-c2ccc(F)cc2)nn1)N1CCN(c2ccccc2)CC1,-2.59

row,Compound,"hERG current change (%, negative = inhibition) at 1uM [%]"
1,COc1ccc(-c2noc(CN3CCN(c4ccccc4)CC3)n2)cc1,11.3
2,COc1cc(C(=O)N(CCc2ccccc2)C2CC3CCC(C2)N3C)cc(OC)c1OC.Cl.O (centres unmarked),-1.79
3,CCN(CC)C(=O)CN(C#N)c1nc(C)cc(C)n1,16
4,COc1ccc(-c2[nH]ncc2CN2CCC(OCc3ccccn3)CC2)c(F)c1,2.13
5,CN1CCN(CC(=O)Nc2ccc(OC(F)(F)F)cc2)CC1.Cl,-31.3
6,COc1ccccc1NC(=O)CSc1nc(=O)n(CCN(C)C)c2c1CCCC2,-2.02
7,CCn1cc(/C=C(\NC(=O)c2ccccc2F)C(=O)N2CCOCC2)c2ccccc21,13.2
8,Cc1cc(C)nc(NS(=O)(=O)c2ccc(NC(=O)c3cc(=O)c4ccccc4o3)cc2)n1,13.4
9,COc1ccc(/C=C2\SC(=S)N(CCC(=O)Nc3ccccc3C(=O)O)C2=O)cc1,8.31
10,Nc1c(C(=O)C2CC2)sc2nc(-c3ccccc3)cc(C(F)(F)F)c12,11
11,Nc1c(C(=O)N2CCCC2)sc2nc(-c3ccccc3)ccc12,-17.8
12,CCOC(=O)C1CCN(C(=O)COC(=O)C2CCN(S(=O)(=O)c3ccc4c(c3)OCCO4)CC2)CC1,14.6
13,C=CCSc1nnc(-c2cc(C(C)(C)C)nn2Cc2ccc(F)cc2)n1C,9.98
14,CN1CC(c2ccccc2)C2(COc3ccccc3C2=O)C12C(=O)Nc1ccccc12 (centres unmarked),0.344
15,CCSc1nnc(NC(=O)CSc2nc3c(c(=O)n2-c2ccccc2OC)SCC3)s1,-16.9
16,Cc1cc(-n2c(C)cc(C(=O)COc3ccc([N+](=O)[O-])cc3)c2C)no1,-5.8
17,CCCCCCSc1cccc(-c2nc3cc(C)ccn3c2NC2CCCCC2)c1.O=C(O)C(F)(F)F,8.06
18,CN(C(=O)c1ccnn1C)C1CCCN(Cc2ccccc2F)C1 (centres unmarked),24.1
19,CC(C)CCN1CCN(Cc2nc(-c3ccccc3)cs2)CC1CCO (centres unmarked),-30.7
20,O=C(COc1coc(CN2CCc3ccccc3C2)cc1=O)Nc1ccc(F)cc1,10.4
